# The whole screen tested about 43,000 compounds, of which about 200 (0.47%) were called active. Inconclusive means that the source gave no clear call. Such entries were picked first, then a sample of the others. Calls follow the shape of the dose curve; as a rule, active = well fitted cell-killing curve with a large enough effect; inconclusive = small, poorly fitted or top-dose-only effect, or effect the other way; inactive = flat fitted curve, though single readings scatter. Where the call is inconclusive, the potency comes from a doubtful curve fit.
# Test: Cell viability qHTS assay in S16 Pmp22-F2sN cells; also: nearly all actives have a fitted effect of over 65% in size
# Conditions: S16 Pmp22-F2sN Schwann cells (luciferase reporters placed in the Pmp22 gene) viability, CellTiter-Glo, 24 h; series mostly up to 57.5 µM
# How it was run: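 Luminescence from CellTiter-Glo, read by CCD camera after a 15 min room-temperature incubation, served as the viability signal. Reporter Schwann cells (S16 Pmp22-F2sN) had been treated with pin-transferred compounds for 24 h at 37C.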
# Potency is read from the fitted curve at half-maximal effect; tags tell the direction and shape of the fitted curve.
row,SMILES,Potency
1,O=S(=O)(NCCc1csc2nc(-c3ccc(F)cc3)nn12)c1ccc(Br)cc1,inactive
2,Cc1ccccc1NC(=O)c1ccc2nc(Cc3ccccc3)oc2c1,"inconclusive: 39.8 µM [cytotoxic, single point]"
3,CC(=O)c1ccc(NS(=O)(=O)c2cc(-c3cnc(C4CC4)o3)ccc2C)cc1,"inconclusive: 25.1 µM [cytotoxic, single point]"
4,COc1ccccc1C(=O)Nc1c(C(=O)N(CCN(C)C)Cc2ccco2)oc2ccccc12,"inconclusive: 35.5 µM [cytotoxic, single point]"
5,C=Cc1ccc(Cn2c(C(=O)O)c(CNCc3cccs3)c3ccc(C)cc32)cc1,"inconclusive: 39.8 µM [cytotoxic, single point]"
6,COc1cccc(CNC(=O)C2CCN(c3nc4ccc(Cl)cc4[nH]3)CC2)c1,inactive
7,CSc1ncc(Cl)c(C(=O)Nc2ccc(S(=O)(=O)N3CCC(C)CC3)cc2)n1,"inconclusive: 28.2 µM [cytotoxic, partial curve, poor fit]"
8,CCc1ccc(OCCCSc2nc(-c3ccc(C(C)(C)C)cc3)nc3cc(=O)[nH]n23)cc1,inactive
9,CC(=O)c1ccc(N2CCN(S(=O)(=O)c3ccc4c(c3)CC(C)N4C(=O)C3CCC3)CC2)cc1 (stereo unspecified),"inconclusive: 8.91 µM [cytotoxic, full curve]"
10,COc1ccccc1NC(=O)CSc1nnc(-c2ccccc2C)o1,inactive
11,COc1cc(NC(=O)CCc2c(C)nn(-c3ccc(N4CCOCC4)nn3)c2C)cc(OC)c1OC,"inconclusive: 25.1 µM [cytotoxic, partial curve, poor fit]"
12,COCCNC(=O)c1ccc2c(=O)n(CCc3ccccc3)c(SCC(=O)CC(=O)OC)nc2c1,"inconclusive: 11.2 µM [cytotoxic, partial curve]"
13,COc1cc2c(=O)c(C(=O)c3ccc(C)c(C)c3)cn(Cc3ccccc3F)c2cc1OC,inactive
14,CCc1ccc(CNC(=O)c2c3c(nc4ccccc24)C(=O)N(C2CCCCC2)C3)cc1,"inconclusive: 28.2 µM [cytotoxic, single point]"
15,Cc1ccc(Cn2c(CN3CCC(C(=O)NCc4ccccc4C)CC3)cc3ccccc32)cc1,inactive
16,COc1ccc(NC(=O)C2COc3ccccc3C2)cc1Cl (stereo unspecified),"inconclusive: 39.8 µM [cytotoxic, single point]"
17,CCc1ccc(NC(=O)CSc2nc3ccccc3nc2Cc2ccc(C)cc2)cc1,inactive
18,COc1ccc(C(=O)CSc2nc(C)cc(C)c2C(=O)Nc2ccccc2C)cc1,"inconclusive: 39.8 µM [cytotoxic, single point]"
19,CC(C)Cc1ccc(S(=O)(=O)N2CCC(c3ccncc3)CC2)cc1,"inconclusive: 39.8 µM [cytotoxic, partial curve, poor fit]"
20,CCc1ccc(CNC(=O)c2ccc3c(Cl)c4c(nc3c2)CCCC4)cc1,"inconclusive: 28.2 µM [rising, single point]"
21,CCC1CCCCN1S(=O)(=O)c1ccc(NC(=O)c2cc(=O)c3c(C)cc(C)cc3o2)cc1 (stereo unspecified),inactive

row,SMILES,Potency
1,COc1cccc(N2CCN(c3c4c(nc5nncn35)CCC4)CC2)c1,"inconclusive: 17.8 µM [cytotoxic, partial curve]"
2,Cc1nnc(C)n1-c1ccc(C(=O)Nc2cccc(Br)c2)cc1,"inconclusive: 25.1 µM [cytotoxic, single point]"
3,COCCCNC(=O)NC(CCC(C)C)c1c(-n2cccc2)sc2c1CCN(C)C2 (stereo unspecified),inactive
4,O=C(NCCN1CCN(c2ccccc2)CC1)Nc1cccc(Br)c1,"inconclusive: 39.8 µM [cytotoxic, single point]"
5,Cc1ccc(C)c(N2CCN(C(=O)CS(=O)(=O)c3cccc4nsnc34)CC2)c1,"inconclusive: 31.6 µM [cytotoxic, single point]"
6,Cc1ccc(CNC(=O)c2ccccc2NC(=O)c2nsc3ccccc23)cc1,"inconclusive: 25.1 µM [cytotoxic, single point]"
7,O=C(Cn1c(-c2cccs2)cc2cc(F)ccc21)NCCCN1CCN(c2ccc(F)cc2)CC1,inactive
8,CC1CCN(c2nc3ccc(C(=O)NCCc4ccc(S(N)(=O)=O)cc4)cc3s2)CC1,inactive
9,COC(=O)c1c(NC(=O)c2ccc(S(=O)(=O)N(C)C3CCCCC3)cc2)sc2c1CCN(C)C2,"inconclusive: 31.6 µM [cytotoxic, single point]"
10,Cc1c(Cl)cccc1NC(=O)Nc1ccc2snnc2c1,"inconclusive: 35.5 µM [cytotoxic, partial curve, poor fit]"
11,CCOc1ccccc1CNC(=O)c1oc2ccc3c(c2c1C)C(=O)CC(C)(C)O3,"inconclusive: 39.8 µM [cytotoxic, single point]"
12,COc1cc(CN(C(=O)c2ccc(Cl)cc2)C2CCS(=O)(=O)C2)cc(OC)c1OC (stereo unspecified),"inconclusive: 0.0562 µM [rising, full curve, poor fit]"
13,COC(=O)c1ccc2nc(C)cc(Nc3cccc(Cl)c3C)c2c1,"inconclusive: 39.8 µM [cytotoxic, single point]"
14,Cc1ccc2onc(CNC(=O)N3CCN(c4cccc(C(F)(F)F)c4)CC3)c2c1,inactive
15,CCOc1ccc(CNCc2c(C(=O)O)n(Cc3ccccc3C)c3cc(OC)ccc23)cc1OC,"inconclusive: 20 µM [cytotoxic, partial curve, poor fit]"
16,CCC(C(=O)NC1CCCCC1)n1c(SCc2cccc(F)c2)nc2ccncc21 (stereo unspecified),"inconclusive: 39.8 µM [cytotoxic, single point]"
17,Cc1ccc(S(=O)(=O)C(CNS(=O)(=O)c2ccc(F)c(C(F)(F)F)c2)c2ccco2)cc1 (stereo unspecified),"inconclusive: 28.2 µM [cytotoxic, single point]"
18,Cc1ccc(Cl)cc1N1CCN(C(=O)CCS(=O)(=O)c2ccc3c(c2)oc(=O)n3C)CC1,"inconclusive: 39.8 µM [cytotoxic, single point]"
19,Cc1ccc(Cl)cc1Nc1nn2c(=O)c3ccc(C(=O)NC(C)c4ccccc4)cc3nc2s1 (stereo unspecified),"inconclusive: 7.08 µM [cytotoxic, full curve]"
20,CCOc1ccccc1CNS(=O)(=O)c1cc(-c2onc(C)c2C)ccc1OC,"inconclusive: 25.1 µM [cytotoxic, partial curve, poor fit]"
21,CCOc1ccccc1Nc1sc(C(=O)c2ccc(Cl)cc2)c(N)c1S(=O)(=O)c1ccccc1,"inconclusive: 7.08 µM [rising, single point]"

row,SMILES,Potency
1,Cc1ccc(N2CCN(C(=O)c3cnn(-c4ccc(C)c(C)c4)c3C3CCNCC3)CC2)c(C)c1,"inconclusive: 31.6 µM [cytotoxic, single point]"
2,CCOc1ccccc1C(=O)NCc1nc2cccnc2n1Cc1ccc(C)cc1,"inconclusive: 31.6 µM [cytotoxic, single point]"
3,Cc1cccc(Cn2nnc3c(=O)[nH]c(C4CCCN(C(=O)c5ccccc5Cl)C4)nc32)c1 (stereo unspecified),"inconclusive: 39.8 µM [cytotoxic, single point]"
4,O=C(c1ccc2c(c1)N(Cc1cccc(Cl)c1)C(=O)c1ccccc1S2=O)N1CCN(c2cccc(C(F)(F)F)c2)CC1 (stereo unspecified),"inconclusive: 10 µM [cytotoxic, partial curve]"
5,Cc1ccc(N(C)C(=O)CN2C(=O)CCc3cc(S(=O)(=O)N4CCOCC4)ccc32)cc1,"inconclusive: 31.6 µM [cytotoxic, single point]"
6,COc1ccc(S(=O)(=O)c2nnn(-c3ccc(C(C)C)cc3)c2C)cc1,"inconclusive: 39.8 µM [cytotoxic, single point]"
7,Cc1ccccc1Cn1c(=O)n(CC2CCC(C(=O)N3CCOCC3)CC2)c(=O)c2sccc21 (stereo unspecified),inactive
8,CN(C)c1ccc(Nc2nc3ccccc3n3nnnc23)cc1,"inconclusive: 12.6 µM [cytotoxic, partial curve, poor fit]"
9,COc1ccc(N2CCN(S(=O)(=O)c3ccc(-c4cnc(C5CC5)o4)cc3)CC2)cc1,inactive
10,O=C(NC1CCCCC1)c1ccc(CSc2nc3ccncc3n2Cc2ccc(F)cc2)cc1,"inconclusive: 39.8 µM [cytotoxic, single point]"
11,Cc1ccc2nc(Cl)c3cc(C(=O)NCCCN(C)Cc4ccccc4)sc3c2c1,"inconclusive: 39.8 µM [cytotoxic, single point]"
12,COc1ccc(OC)c(NC(=O)CSC2=Nc3ccccc3C3=NC(CC(=O)NCCc4ccccc4)C(=O)N23)c1 (stereo unspecified),"inconclusive: 31.6 µM [cytotoxic, single point]"
13,COc1cc(-n2c(=O)c3ccccc3n(Cc3cccc(Cl)c3)c2=O)cc(OC)c1OC,"inconclusive: 39.8 µM [cytotoxic, single point]"
14,COc1ccc(-c2onc(C)c2C)cc1S(=O)(=O)NCCc1ccccc1,"inconclusive: 39.8 µM [cytotoxic, single point]"
15,CCOC(=O)c1[nH]c2c(c1Cc1ccccc1)C(=O)CC(c1ccccc1)C2 (stereo unspecified),"inconclusive: 39.8 µM [cytotoxic, single point]"
16,O=C(Nc1ccc(Br)cc1)c1cc(S(=O)(=O)NC2CCCC2)ccc1F,"inconclusive: 39.8 µM [cytotoxic, single point]"
17,O=C(CN1C(=O)CSc2ccc(S(=O)(=O)N3CCOCC3)cc21)NCCCN1CCCCC1,"inconclusive: 7.08 µM [rising, full curve, poor fit]"
18,Cc1ccc(Nc2nc(N)nc(CSc3nc4ccccc4s3)n2)cc1,"inconclusive: 39.8 µM [cytotoxic, single point]"
19,COc1ccccc1C(=O)n1nc(-c2ccccc2)nc1NCc1ccc(Cl)cc1,inactive

# Reference: PubChem BioAssay AID1508642 (National Center for Advancing Translational Sciences (NCATS), 2021)
